In PMC10668032 one finds binding signal data, which are given here for 172 sequences.

This is one part of the list. At the low end of the ranking the order means little.

The target in this experiment is SIX1-Q177R homeodomain (UniProt Q15475). Put plainly: universal protein binding microarray. The settings on record: Universal all-10-mer PBM (8x60K, AMADID 030236), 300 nM GST-tagged protein, Alexa Fluor 488 anti-GST; buffer, salt, pH and temperature not stated; high values mean tight binding; most listed sequences are background and not binding sites; double strand, one strand shown.
As for CTATAGTC, the binding signal was -0.168 E-score.

In the case of CCGAGCAC, the binding signal was found to be 0.178 E-score. As for CCCCACGG, the binding signal was found to be 0.137 E-score. For ACAACCAA the value was -0.104 E-score; for TTAGAAAA, -0.178 E-score; for AACAGAAT, -0.182 E-score. For the sequence ATTTGTTC, the binding signal was -0.0296 E-score. Regarding AGTTCGCA, the binding signal was -0.257 E-score. With ACTAAGGA, the binding signal was -0.0102 E-score. TATCCAAA: the binding signal is 0.0593 E-score. In the case of ATTGGAGG, the binding signal is -0.165 E-score. For the sequence AGCCGGAG, the binding signal was 0.115 E-score. In the case of GGCACACA it was 0.179 E-score. For CGCTCTTC the value was -0.154 E-score; for AAGAGAAT, -0.4 E-score. In the case of ATCGCATA it was -0.0951 E-score; in that of AACCAGCC, -0.234 E-score. As to GAGTAAAC, the binding signal is -0.00017 E-score. CGACTTTC: the binding signal was -0.232 E-score.

Turning to GTTACGCA, the binding signal turned out to be 0.141 E-score. In the case of AGCGGGGA it was 0.139 E-score; in that of CAATTTAA, -0.0626 E-score. In the case of AGTGCCTC it was 0.0084 E-score. For TGCATAAA the value was 0.0382 E-score; for CCACATCA, -0.0761 E-score; for CCCCCAAG, 0.227 E-score. In the case of CATGATCA, the binding signal is -0.154 E-score. On to GGTTGTTA, for which the binding signal was -0.0393 E-score. For ACATGACT, the binding signal is -0.093 E-score. Regarding ACCTAAGA, the binding signal is -0.0597 E-score. In the case of GTAAGATA it was 0.0906 E-score; in that of ACACAGCA, 0.11 E-score. As for CCTAGTAA, the binding signal was determined as 0.0864 E-score. Regarding CGCATAGC, the binding signal is -0.0178 E-score. For GCTCTGAA the value was -0.149 E-score; for ACCTCCAT, -0.0105 E-score; for CGGACGCA, 0.00688 E-score. As for ACACGAGC, the binding signal is 0.329 E-score. In the case of GCACACTA it was 0.2 E-score; in that of AGCCGGTC, -0.173 E-score. Consider AGTTAATG, for which the binding signal was -0.14 E-score. Regarding AGAAGGTC, the binding signal is -0.0424 E-score. On to CGATATAG, for which the binding signal was 0.0475 E-score.

Consider AGTGGACC, for which the binding signal is -0.138 E-score. For AGGTGCCG the value was 0.0502 E-score. In the case of CATAGTAA it was 0.0931 E-score.

For the sequence CTCTCAAA, the binding signal is -0.112 E-score.

With GATCCCCA, the binding signal turned out to be 0.267 E-score.

For ACTCGTGG, the binding signal is -0.0125 E-score.

With ATGGTGCA, the binding signal came out at 0.117 E-score. Consider ATATGCAA, for which the binding signal was -0.166 E-score. For AATCTCGT the value was -0.211 E-score.

With ACTCGGGG, the binding signal was determined as 0.21 E-score. For the sequence CGCTTCCG, the binding signal was -0.215 E-score.

As for AGCCGTCG, the binding signal was -0.161 E-score. Consider GTGCCGAA, for which the binding signal was 0.0484 E-score. In the case of AAGAGAGG, the binding signal was -0.211 E-score. Turning to CTGACTAC, the binding signal is -0.0271 E-score. For AGGCGGAG the value was -0.000365 E-score; for CTTTGCCA, -0.328 E-score. For GAAGGAGC the value was -0.174 E-score; for CCTCTCAC, 0.0492 E-score; for CATTTCCA, -0.00441 E-score. For AGGAACGG the value was -0.201 E-score; for TAGGACTA, -0.173 E-score. Consider TGATGTAA, for which the binding signal was 0.0254 E-score. For CCGCGGTA the value was -0.00756 E-score; for AGCATCAT, -0.134 E-score. In the case of AACGGGGC it was -0.248 E-score. For ACTTCTCC the value was -0.14 E-score; for CGGCTGCC, -0.0105 E-score.

For GACGATAA, the binding signal is -0.0592 E-score. In the case of AAATCAGG it was -0.102 E-score; in that of CGACCAGA, -0.0704 E-score; in that of AGTCCGGA, -0.113 E-score. For the sequence CGTGCTCC, the binding signal was 0.0379 E-score. As to ATGTCTCA, the binding signal was -0.0415 E-score. For CCCACCAG the value was 0.108 E-score; for AGCGCGCT, 0.00085 E-score. For GGATTTGA the value was -0.0786 E-score. In the case of CGCACCAA, the binding signal amounted to 0.131 E-score. For AACAGCAT the value was -0.239 E-score; for CCCATGTA, -0.0943 E-score; for GTATACAA, 0.155 E-score.

As to ACCCTAAG, the binding signal came to 0.185 E-score. In the case of GCTGCGCA it was -0.233 E-score; in that of ACAGGACG, -0.0137 E-score; in that of GCTACGCA, -0.171 E-score. In the case of GAGTTCTA it was -0.00646 E-score; in that of CCATGTTA, -0.0742 E-score. For the sequence GCTCCTCA, the binding signal is -0.194 E-score.

As to GATGAACC, the binding signal worked out at 0.0658 E-score.

Turning to CACCTGTC, the binding signal was 0.224 E-score. With GCCAGTCA, the binding signal was -0.122 E-score. Consider CGCTATGC, for which the binding signal was determined as 0.0293 E-score. On to GAGGGCCC, for which the binding signal is -0.166 E-score. For AGTCTGTA the value was -0.283 E-score; for ATGCTAAT, -0.233 E-score.

For CTGAGAAC, the binding signal was determined as 0.0938 E-score.

On to ACGATACA, for which the binding signal came to 0.187 E-score.

As for CCATTACA, the binding signal was determined as 0.162 E-score. For ACATCCCA, the binding signal is -0.173 E-score. Regarding CGCCGTAA, the binding signal was -0.0507 E-score. Regarding AGGCTCTG, the binding signal is -0.3 E-score. With ATGTGTTG, the binding signal came out at 0.0518 E-score. In the case of CATCGTTA it was -0.104 E-score; in that of CGCTAACG, -0.14 E-score; in that of ATCCAACG, -0.14 E-score. With CGTTTGCA, the binding signal is -0.159 E-score. Regarding CGATAACC, the binding signal came to 0.0101 E-score. For ATGTGGCG the value was -0.115 E-score. As to GTACTGCA, the binding signal is 0.00894 E-score. For CAAGAGGC the value was -0.316 E-score.

In the case of TCACAAGA, the binding signal is -0.0879 E-score. As for AAGATCGA, the binding signal was -0.131 E-score.

With TACATCCA, the binding signal was -0.0249 E-score. In the case of ACTGTACT it was -0.143 E-score; in that of ACTCACAC, 0.3 E-score; in that of CGAATGAG, -0.028 E-score. For AGGGTGGA the value was 0.0968 E-score; for GAACGAAA, -0.241 E-score; for ATAGACAT, -0.0459 E-score. For ATCGTGCA, the binding signal turned out to be 0.0543 E-score. For AGCATGAG the value was 0.0403 E-score; for GGTTTTAA, 0.0294 E-score. In the case of CCGGGTCG it was 0.248 E-score; in that of CACCTGGA, 0.224 E-score; in that of AACGATAA, -0.268 E-score. For CTTAGCGA, the binding signal was -0.0464 E-score. In the case of CCTTATTC it was -0.187 E-score; in that of CAAACCAA, -0.151 E-score. Take AACGTACG: the binding signal was -0.237 E-score.

With CGCCATGA, the binding signal was -0.0432 E-score. Turning to GAAAACCA, the binding signal was -0.142 E-score. Regarding AAGGCACG, the binding signal was -0.193 E-score. For GGCGCATA the value was 0.026 E-score; for TCAAACCA, -0.0387 E-score. Consider CACCGCAC, for which the binding signal was 0.333 E-score. For AGACTTGC the value was -0.22 E-score; for ATAGGATG, -0.26 E-score.

In the case of TGGGTACA, the binding signal amounted to 0.29 E-score. As to AGAGTCTG, the binding signal is -0.271 E-score.

Consider AATTGAGT, for which the binding signal was 0.0195 E-score. In the case of CTAGATAC it was 0.165 E-score; in that of CCCTCATC, 0.0516 E-score. For AGGTCGTG the value was 0.264 E-score; for ACTTTACA, 0.228 E-score; for GAGGCCCA, -0.197 E-score. For ACTCACGG the value was -0.117 E-score; for CGCCAGGC, 0.0238 E-score; for CTTTAAGA, -0.134 E-score. As for CGTTACAG, the binding signal is -0.0829 E-score. In the case of TAATCAGA it was 0.0787 E-score.

Regarding ACGGTGAG, the binding signal amounted to 0.0108 E-score. For GACCCACC the value was 0.116 E-score; for CGCATAGA, -0.206 E-score; for GTTCAGGA, 0.144 E-score. With CTTTTACC, the binding signal was -0.0946 E-score. For AATAATCG, the binding signal is -0.0864 E-score. In the case of CCGGGTCC it was 0.12 E-score. For GGCCTTGA the value was -0.0493 E-score; for AGGCTGAA, -0.0346 E-score; for CTGGTCCC, -0.0616 E-score. On to CTAACGAC, for which the binding signal is -0.159 E-score.

As to CTACCGGC, the binding signal was -0.0956 E-score. For AAGTGTTA the value was 0.393 E-score.

On to TCGCAGAA, for which the binding signal is -0.0466 E-score. Turning to ACTAAGTA, the binding signal was -0.15 E-score. ATTCAGAA: the binding signal was -0.314 E-score. Take CGATCGGA: the binding signal amounted to 0.0184 E-score.

As for GCACGTAC, the binding signal stood at 0.00092 E-score. For ATCGCCCC the value was 0.121 E-score.
